Experimental data from patent US8088819B2, “Derivatives of substituted 3-phenyl-1-(phenylthienyl)propan-1-ones and of 3-phenyl-1-(phenylfuranyl) propan-1-ones, preparation and use” (priority 2006, dated 2012).
The name of at least one read-out is uncertain.

Test system: target genes of PPARδ in murine myocytes (C2C12)
Assay: Expression of target genes of PPARδ (PDK4, CPT1b, UCP2, UCP3) in murine myocytes, quantitative RT-PCR
Assay type: cell-based
Settings: 24 h, induction factor vs DMSO
Text: It is established that regulation of the expression of these genes is directly controlled by PPARδ in this cell type. The more the expression of the genes is increased, the greater the stimulating action of the compound according to the invention on metabolism in the muscle cells.
Cells from the murine cell line C2C12 (obtained from ECACC) are cultivated in DMEM medium (Gibco; 41965-039) with addition of 1% L-glutamine (Gibco; 25030), 1% of penicillin/streptomycin (VWR; BWSTL0022/100) and 10% decomplemented fetal calf serum (FCS. Gibco; 10270-106).
The cells are seeded on 24-well plates at a density of 50·10^3 cells/well. At confluence, the medium is replaced with a differentiating medium (basal medium with addition of 2% of horse serum (Gibco; 26050-088)), then incubated at 37° C. and 5% CO2 for 4 days in order to differentiate them to myocytes.
After 5 days of differentiation, the cells are put in a deprivation medium (basal medium without serum) for 6 hours. The cells are then treated with the compounds according to the invention in the deprivation medium. Compounds 2, 4, 7, 11, 39, 40, 46, 49 and 72 were in dose effect, corresponding to 1×, 10× and 100× their EC50 PPARδ. The compounds according to the invention were dissolved in dimethylsulfoxide (DMSO, Sigma; D5879). The cells were treated for 24 h at 37° C., 5% CO2. The effect of the compounds according to the invention was compared with the effect of DMSO alone.
After treatment, the total RNA is extracted from the cells using the NucleoSpine® 96 RNA kit (Macherey Nagel, Hoerdt, France) following the manufacturer's instructions.
1 μg of total RNA (quantified based on the UV spectrophotometer reading) was then reverse-transcribed to complementary DNA by reaction for 1 hour at 37° C. in a total volume of 30 μl containing buffer 1× (Invitrogen), 1.5 mM of DTT, 0.18 mM of dNTPs (Promega), 200 ng of pdN6 (Amersham), 30 U of RNase inhibitor (Promega) and 1 μl of MMLV-RT (Invitrogen).
The quantitative PCR experiments were carried out using the MyiQ Single-Color Real-Time PCR Detection System (Biorad, Marnes-la-Coquette, France) and were performed using the iQ SYBR Green Supermix kit following the supplier's recommendations, in 96-well plates, on 5 μl of diluted reverse-transcription reaction mixtures with a hybridization temperature of 60° C. Primer pairs specific to the PDK4, CPT1b, UCP2 and UCP3 genes under investigation were used:
The amount of fluorescence emitted is directly proportional to the amount of complementary DNA present at the start of the reaction and amplified during PCR. For each target investigated, a range is produced by successive dilutions of a pool constituted of a few microliters of various reverse-transcription reaction mixtures. The relative expression levels of each target are thus determined using the efficacy curves obtained with the points in the range.
The levels of expression of the genes of interest were then normalized relative to the level of expression of the reference gene 36B4 (whose specific primers are: sense primer: 5′-[…]-3′ (SEQ ID No. 19) and antisense primer: 5′-[…]-3′ (SEQ ID No. 20)). The induction factor, i.e. the ratio of the relative signal (induced by the compound according to the invention) to the mean of the relative values of the control group, was then calculated. The higher this factor, the greater the activating character of the compounds according to the invention with respect to gene expression. The final result is represented as the mean of the induction values in each experimental group.

[1] = dose 1x EC50 PPARδ, normalized to 36B4

Structure (SMILES)	CPT1b Induction (dose 1x EC50 PPARδ)	UCP2 Induction (dose 1x EC50 PPARδ)	UCP3 Induction (dose 1x EC50 PPARδ)	PDK4 Induction [1]	CPT1b Induction (dose 10x EC50 PPARδ)	PDK4 Induction (dose 10x EC50 PPARδ)	UCP2 Induction (dose 10x EC50 PPARδ)	UCP3 Induction (dose 10x EC50 PPARδ)	CPT1b Induction (dose 100x EC50 PPARδ)	PDK4 Induction (dose 100x EC50 PPARδ)	UCP2 Induction (dose 100x EC50 PPARδ)	UCP3 Induction (dose 100x EC50 PPARδ)
CC(C)(Oc1ccc(CCC(=O)c2ccc(-c3ccc(C(F)(F)F)cc3)s2)c(Cl)c1Cl)C(=O)O [Compound 2, 2-(2,3-dichloro-4-(3-oxo-3-(5-(4-(trifluoromethyl)phenyl)thien-2-yl)propyl)phenoxy)-2-methylpropanoic acid]	1.81	3.46	4.29	1.62	1.66	2.11	3.98	4.62	2.97	2.39	4.67	6.95
CC(C)(Oc1ccc(CCC(O)c2ccc(-c3ccc(C(F)(F)F)cc3)s2)c(Cl)c1Cl)C(=O)O (stereo not drawn) [Compound 4, 2-(2,3-dichloro-4-(3-hydroxy-3-(5-(4-(trifluoromethyl)phenyl)thien-2-yl)propyl)phenoxy)-2-methylpropanoic acid]	1.78	2.79	2.45	2.19	1.93	2.35	2.41	2.34	1.98	2.13	2.92	2.37
CC(C)(Oc1ccc(CCC(OCc2ccccc2)c2ccc(-c3ccc(C(F)(F)F)cc3)s2)c(Cl)c1Cl)C(=O)O (stereo not drawn) [Compound 7, 2-(4-(3-(benzyloxy)-3-(5-(4-(trifluoromethyl)phenyl)thien-2-yl)propyl)-2,3-dichlorophenoxy)-2-methylpropanoic acid]	1.71	3.41	4.30	3.45	2.14	5.30	3.95	5.09	2.50	5.14	2.14	5.24
CC(C)(Oc1ccc(CCC(=O)c2cc(-c3ccc(C(F)(F)F)cc3)cs2)c(Cl)c1Cl)C(=O)O [Compound 11, 2-(2,3-dichloro-4-(3-oxo-3-(4-(4-(trifluoromethyl)phenyl)thien-2-yl)propyl)phenoxy)-2-methylpropanoic acid]	0.96	2.15	1.45	1.32	1.42	2.85	1.68	2.56	1.51	4.58	3.85	4.96
CC(C)(Oc1ccc(CCC(OCc2cccnc2)c2ccc(-c3ccc(C(F)(F)F)cc3)s2)c(Cl)c1Cl)C(=O)O (stereo not drawn) [Compound 39, 2-(2,3-dichloro-4-(3-(pyridin-3-ylmethoxy)-3-(5-(4-(trifluoromethyl)phenyl)thien-2-yl)propyl)phenoxy)-2-methylpropanoic acid]	2.46	4.38	3.39	3.66	2.16	6.22	4.56	3.85	3.81	5.17	5.63	5.24
COC(CCc1ccc(OC(C)(C)C(=O)O)c(Cl)c1Cl)c1ccc(-c2ccc(C(F)(F)F)cc2)s1 (stereo not drawn) [Compound 40, 2-(2,3-dichloro-4-(3-methoxy-3-(5-(4-(trifluoromethyl)phenyl)-thien-2-yl)propyl)phenoxy)-2-methylpropanoic acid]	1.94	4.86	4.12	3.79	2.13	4.05	3.47	2.97	1.91	3.88	2.99	2.72
CC(C)(Oc1ccc(CCC(=O)c2ccc(-c3ccc(C(F)(F)F)cc3)s2)c(F)c1F)C(=O)O [Compound 46, 2-(2,3-difluoro-4-(3-oxo-3-(5-(4-(trifluoromethyl)phenyl)thien-2-yl)propyl)phenoxy)-2-methylpropanoic acid]	2.03	3.27	3.38	1.81	2.63	2.68	5.37	5.60	2.91	2.67	4.58	5.61
Cc1cc(CCC(=O)c2ccc(-c3ccc(C(F)(F)F)cc3)s2)cc(C)c1OC(C)(C)C(=O)O [Compound 48, 2-(2,6-dimethyl-4-(3-oxo-3-(5-(4-(trifluoromethyl)phenyl)thien-2-yl)propyl)phenoxy)-2-methylpropanoic acid]	1.32	1.13	1.42	0.84	1.95	1.01	2.04	1.82	2.17	1.78	4.64	3.83
CC(C)(Oc1ccc(CCC(OCc2ccccc2)c2ccc(-c3ccc(C(F)(F)F)cc3)s2)c(F)c1F)C(=O)O (stereo not drawn) [Compound 63, 2-(4-(3-(benzyloxy)-3-(5-(4-(trifluoromethyl)phenyl)thien-2-yl)-propyl)-2,3-difluorophenoxy)-2-methylpropanoic acid]	1.84	3.36	4.60	1.86	2.04	2.04	4.44	5.44	2.61	2.63	4.23	5.52
COC(CCc1ccc(OC(C)(C)C(=O)O)c(Cl)c1Cl)c1ccc(-c2ccc(C(F)(F)F)cc2)o1 (stereo not drawn) [Compound 72, 2-(2,3-dichloro-4-(3-methoxy-3-(5-(4-(trifluoromethyl)phenyl)fur-2-yl)propyl)phenoxy)-2-methylpropanoic acid]	2.24	3.09	3.17	4.01	2.96	5.05	4.25	3.79	3.67	5.64	4.31	4.48
